These are yes or no findings as the source states them, for the method shown. For some assays here: Binding seen in cells or lysates may run through a third protein. Some entries that bind do so weakly or less than the wild type.
Assays:
GST–importin β1 = GST–importin β1 (UniProt Q14974); assay: pull-down; GST or GST–importins (15 µg) immobilised on glutathione–Sepharose 4B, in the absence or presence of His-tagged importin-β or nucleoplasmin (1:1 molar with importins); 1.5 µg purified CHD4 protein added; 20 mM HEPES pH 7.5, 100 mM KOAc, 0.5 mM EGTA, 5 mM MgOAc, 250 mM sucrose, 4°C; western blot of bead fractions; both purified
GST–importin α5 = GST–importin α5 (UniProt P52294); assay: as above
[1] = target: C-terminal GFP-tagged CHD4 wild-type (human) (UniProt Q14839); assay: co-IP; GFP-Trap A on nuclear extract of stably transfected HEK 293 cells, 24 h doxycycline; IP buffer with 150 mM NaCl, one wash with 500 mM NaCl; western blot
[2] = target: C-terminal GFP-tagged CHD4 wild-type (human) (UniProt Q14839); assay: co-IP; GFP-Trap A on cytoplasmic extract of stably transfected HEK 293 cells, 24 h doxycycline; IP buffer with 150 mM KCl, one wash with 500 mM KCl; western blot

By UniProt entry, the sequences of proteins in these tests, tags left out. Where a name states a change or a piece, a line headed by the entry shows the natural chain unless it says otherwise. Chains listed by the source or under a name are the forms on record and can include a tag or linker.
UniProt P52294: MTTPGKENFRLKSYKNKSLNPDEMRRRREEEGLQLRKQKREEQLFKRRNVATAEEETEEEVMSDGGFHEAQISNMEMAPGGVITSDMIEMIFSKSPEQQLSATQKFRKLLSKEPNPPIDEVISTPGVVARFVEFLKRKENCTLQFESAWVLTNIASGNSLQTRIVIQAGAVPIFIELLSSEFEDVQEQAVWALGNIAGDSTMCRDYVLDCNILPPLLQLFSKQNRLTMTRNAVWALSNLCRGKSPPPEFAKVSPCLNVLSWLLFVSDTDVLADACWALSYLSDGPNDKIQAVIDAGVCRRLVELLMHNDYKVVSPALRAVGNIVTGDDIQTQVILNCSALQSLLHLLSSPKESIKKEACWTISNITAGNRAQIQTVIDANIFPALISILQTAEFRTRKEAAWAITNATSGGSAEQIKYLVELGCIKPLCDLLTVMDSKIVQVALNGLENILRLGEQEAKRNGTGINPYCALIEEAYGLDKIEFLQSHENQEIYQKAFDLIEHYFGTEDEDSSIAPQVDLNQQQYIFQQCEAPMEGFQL
UniProt Q14839: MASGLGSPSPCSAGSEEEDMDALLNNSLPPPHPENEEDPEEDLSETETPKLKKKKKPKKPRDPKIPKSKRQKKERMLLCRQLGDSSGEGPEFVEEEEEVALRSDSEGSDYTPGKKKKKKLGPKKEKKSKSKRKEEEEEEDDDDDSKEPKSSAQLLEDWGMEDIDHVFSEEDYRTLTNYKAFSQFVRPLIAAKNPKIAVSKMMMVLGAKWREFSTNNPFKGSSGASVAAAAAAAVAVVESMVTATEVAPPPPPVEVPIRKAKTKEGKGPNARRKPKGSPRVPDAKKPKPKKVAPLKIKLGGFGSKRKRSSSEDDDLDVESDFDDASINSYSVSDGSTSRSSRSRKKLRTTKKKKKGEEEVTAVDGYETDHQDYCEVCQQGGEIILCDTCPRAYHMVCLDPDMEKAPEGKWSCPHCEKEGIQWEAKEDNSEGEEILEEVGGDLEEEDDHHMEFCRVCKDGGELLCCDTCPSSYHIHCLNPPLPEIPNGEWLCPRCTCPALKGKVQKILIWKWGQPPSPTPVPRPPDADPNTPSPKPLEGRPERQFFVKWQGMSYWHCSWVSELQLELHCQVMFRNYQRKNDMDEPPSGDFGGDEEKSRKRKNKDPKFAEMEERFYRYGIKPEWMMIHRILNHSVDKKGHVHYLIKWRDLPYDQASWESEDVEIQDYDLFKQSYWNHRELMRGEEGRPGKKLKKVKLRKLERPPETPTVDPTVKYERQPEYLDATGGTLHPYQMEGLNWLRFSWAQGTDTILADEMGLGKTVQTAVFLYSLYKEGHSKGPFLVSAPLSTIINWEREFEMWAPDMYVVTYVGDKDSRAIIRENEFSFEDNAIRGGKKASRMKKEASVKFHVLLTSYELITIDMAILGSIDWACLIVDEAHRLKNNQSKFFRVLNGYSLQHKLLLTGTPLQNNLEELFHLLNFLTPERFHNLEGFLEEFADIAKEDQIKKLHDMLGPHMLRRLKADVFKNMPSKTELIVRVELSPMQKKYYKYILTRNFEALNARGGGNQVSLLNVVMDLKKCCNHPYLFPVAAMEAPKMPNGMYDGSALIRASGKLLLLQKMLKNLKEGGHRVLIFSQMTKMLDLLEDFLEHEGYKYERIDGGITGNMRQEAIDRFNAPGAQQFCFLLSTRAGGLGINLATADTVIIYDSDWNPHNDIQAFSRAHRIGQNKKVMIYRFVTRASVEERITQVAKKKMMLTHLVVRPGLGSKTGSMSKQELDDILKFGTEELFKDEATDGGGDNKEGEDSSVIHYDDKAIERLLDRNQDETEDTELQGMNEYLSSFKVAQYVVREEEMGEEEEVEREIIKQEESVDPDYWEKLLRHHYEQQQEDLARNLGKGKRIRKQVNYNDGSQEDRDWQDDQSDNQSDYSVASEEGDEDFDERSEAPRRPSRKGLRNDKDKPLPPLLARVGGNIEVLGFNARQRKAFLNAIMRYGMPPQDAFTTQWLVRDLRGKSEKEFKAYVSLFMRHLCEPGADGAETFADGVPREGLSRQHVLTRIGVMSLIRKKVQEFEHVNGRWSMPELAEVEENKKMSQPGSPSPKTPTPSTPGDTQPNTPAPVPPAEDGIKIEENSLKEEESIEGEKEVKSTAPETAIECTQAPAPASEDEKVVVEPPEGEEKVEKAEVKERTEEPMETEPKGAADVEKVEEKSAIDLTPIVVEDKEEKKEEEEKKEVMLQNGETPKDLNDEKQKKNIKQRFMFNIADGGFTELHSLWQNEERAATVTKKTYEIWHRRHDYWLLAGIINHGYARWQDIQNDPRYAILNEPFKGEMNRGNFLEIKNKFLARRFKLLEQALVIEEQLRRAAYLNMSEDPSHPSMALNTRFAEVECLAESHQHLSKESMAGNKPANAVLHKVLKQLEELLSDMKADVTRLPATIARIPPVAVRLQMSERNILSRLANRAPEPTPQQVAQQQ
CHD4-C-Flag aa 304–307 Ala (Q14839, form named): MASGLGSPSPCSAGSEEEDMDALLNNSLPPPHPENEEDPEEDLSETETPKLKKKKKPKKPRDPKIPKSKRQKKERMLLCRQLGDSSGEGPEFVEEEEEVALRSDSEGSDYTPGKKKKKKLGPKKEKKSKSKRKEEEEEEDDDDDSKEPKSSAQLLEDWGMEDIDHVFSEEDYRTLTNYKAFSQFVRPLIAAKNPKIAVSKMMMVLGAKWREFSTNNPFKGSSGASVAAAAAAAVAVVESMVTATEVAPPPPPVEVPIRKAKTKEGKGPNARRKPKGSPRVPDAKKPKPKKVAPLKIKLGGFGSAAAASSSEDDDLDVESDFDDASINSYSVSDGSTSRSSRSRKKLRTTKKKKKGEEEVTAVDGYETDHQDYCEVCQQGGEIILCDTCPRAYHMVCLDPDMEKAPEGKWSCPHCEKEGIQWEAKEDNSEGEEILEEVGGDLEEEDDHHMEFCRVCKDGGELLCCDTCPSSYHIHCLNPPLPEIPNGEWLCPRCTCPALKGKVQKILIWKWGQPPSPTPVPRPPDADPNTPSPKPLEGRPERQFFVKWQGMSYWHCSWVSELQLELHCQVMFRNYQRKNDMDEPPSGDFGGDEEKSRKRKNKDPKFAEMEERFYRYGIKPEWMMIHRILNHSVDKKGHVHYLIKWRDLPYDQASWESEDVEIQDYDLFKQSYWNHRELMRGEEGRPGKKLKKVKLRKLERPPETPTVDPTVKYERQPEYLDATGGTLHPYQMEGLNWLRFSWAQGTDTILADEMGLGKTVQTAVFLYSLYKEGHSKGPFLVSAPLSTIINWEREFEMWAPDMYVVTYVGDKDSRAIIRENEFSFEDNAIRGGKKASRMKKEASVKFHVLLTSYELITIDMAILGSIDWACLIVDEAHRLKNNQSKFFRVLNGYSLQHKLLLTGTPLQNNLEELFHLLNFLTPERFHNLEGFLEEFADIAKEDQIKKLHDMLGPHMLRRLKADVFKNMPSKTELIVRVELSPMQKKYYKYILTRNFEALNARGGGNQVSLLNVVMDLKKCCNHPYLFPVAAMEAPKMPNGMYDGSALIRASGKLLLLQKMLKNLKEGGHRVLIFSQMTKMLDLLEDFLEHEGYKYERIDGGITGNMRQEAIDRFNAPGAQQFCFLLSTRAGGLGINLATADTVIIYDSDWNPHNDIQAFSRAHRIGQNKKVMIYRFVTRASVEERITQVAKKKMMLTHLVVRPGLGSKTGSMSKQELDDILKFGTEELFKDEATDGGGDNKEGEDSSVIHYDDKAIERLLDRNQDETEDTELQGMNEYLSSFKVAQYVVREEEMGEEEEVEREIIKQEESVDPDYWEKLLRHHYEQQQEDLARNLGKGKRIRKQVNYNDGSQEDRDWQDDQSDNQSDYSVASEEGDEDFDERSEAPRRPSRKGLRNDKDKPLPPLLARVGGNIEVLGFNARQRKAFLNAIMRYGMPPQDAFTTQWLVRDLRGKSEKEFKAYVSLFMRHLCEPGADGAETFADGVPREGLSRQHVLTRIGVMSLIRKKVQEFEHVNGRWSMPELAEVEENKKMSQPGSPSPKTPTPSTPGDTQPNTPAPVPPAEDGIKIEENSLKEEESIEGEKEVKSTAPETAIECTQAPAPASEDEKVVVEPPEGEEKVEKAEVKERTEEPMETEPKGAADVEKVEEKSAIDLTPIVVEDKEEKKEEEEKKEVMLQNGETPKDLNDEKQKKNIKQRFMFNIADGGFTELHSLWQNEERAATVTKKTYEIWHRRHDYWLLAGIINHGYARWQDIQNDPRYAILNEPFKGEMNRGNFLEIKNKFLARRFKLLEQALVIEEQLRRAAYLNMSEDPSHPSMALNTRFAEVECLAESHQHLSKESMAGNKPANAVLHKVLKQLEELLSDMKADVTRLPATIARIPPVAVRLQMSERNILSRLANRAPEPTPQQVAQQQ
CHD4-C-Flag Δ aa 2–149 (Q14839, form named): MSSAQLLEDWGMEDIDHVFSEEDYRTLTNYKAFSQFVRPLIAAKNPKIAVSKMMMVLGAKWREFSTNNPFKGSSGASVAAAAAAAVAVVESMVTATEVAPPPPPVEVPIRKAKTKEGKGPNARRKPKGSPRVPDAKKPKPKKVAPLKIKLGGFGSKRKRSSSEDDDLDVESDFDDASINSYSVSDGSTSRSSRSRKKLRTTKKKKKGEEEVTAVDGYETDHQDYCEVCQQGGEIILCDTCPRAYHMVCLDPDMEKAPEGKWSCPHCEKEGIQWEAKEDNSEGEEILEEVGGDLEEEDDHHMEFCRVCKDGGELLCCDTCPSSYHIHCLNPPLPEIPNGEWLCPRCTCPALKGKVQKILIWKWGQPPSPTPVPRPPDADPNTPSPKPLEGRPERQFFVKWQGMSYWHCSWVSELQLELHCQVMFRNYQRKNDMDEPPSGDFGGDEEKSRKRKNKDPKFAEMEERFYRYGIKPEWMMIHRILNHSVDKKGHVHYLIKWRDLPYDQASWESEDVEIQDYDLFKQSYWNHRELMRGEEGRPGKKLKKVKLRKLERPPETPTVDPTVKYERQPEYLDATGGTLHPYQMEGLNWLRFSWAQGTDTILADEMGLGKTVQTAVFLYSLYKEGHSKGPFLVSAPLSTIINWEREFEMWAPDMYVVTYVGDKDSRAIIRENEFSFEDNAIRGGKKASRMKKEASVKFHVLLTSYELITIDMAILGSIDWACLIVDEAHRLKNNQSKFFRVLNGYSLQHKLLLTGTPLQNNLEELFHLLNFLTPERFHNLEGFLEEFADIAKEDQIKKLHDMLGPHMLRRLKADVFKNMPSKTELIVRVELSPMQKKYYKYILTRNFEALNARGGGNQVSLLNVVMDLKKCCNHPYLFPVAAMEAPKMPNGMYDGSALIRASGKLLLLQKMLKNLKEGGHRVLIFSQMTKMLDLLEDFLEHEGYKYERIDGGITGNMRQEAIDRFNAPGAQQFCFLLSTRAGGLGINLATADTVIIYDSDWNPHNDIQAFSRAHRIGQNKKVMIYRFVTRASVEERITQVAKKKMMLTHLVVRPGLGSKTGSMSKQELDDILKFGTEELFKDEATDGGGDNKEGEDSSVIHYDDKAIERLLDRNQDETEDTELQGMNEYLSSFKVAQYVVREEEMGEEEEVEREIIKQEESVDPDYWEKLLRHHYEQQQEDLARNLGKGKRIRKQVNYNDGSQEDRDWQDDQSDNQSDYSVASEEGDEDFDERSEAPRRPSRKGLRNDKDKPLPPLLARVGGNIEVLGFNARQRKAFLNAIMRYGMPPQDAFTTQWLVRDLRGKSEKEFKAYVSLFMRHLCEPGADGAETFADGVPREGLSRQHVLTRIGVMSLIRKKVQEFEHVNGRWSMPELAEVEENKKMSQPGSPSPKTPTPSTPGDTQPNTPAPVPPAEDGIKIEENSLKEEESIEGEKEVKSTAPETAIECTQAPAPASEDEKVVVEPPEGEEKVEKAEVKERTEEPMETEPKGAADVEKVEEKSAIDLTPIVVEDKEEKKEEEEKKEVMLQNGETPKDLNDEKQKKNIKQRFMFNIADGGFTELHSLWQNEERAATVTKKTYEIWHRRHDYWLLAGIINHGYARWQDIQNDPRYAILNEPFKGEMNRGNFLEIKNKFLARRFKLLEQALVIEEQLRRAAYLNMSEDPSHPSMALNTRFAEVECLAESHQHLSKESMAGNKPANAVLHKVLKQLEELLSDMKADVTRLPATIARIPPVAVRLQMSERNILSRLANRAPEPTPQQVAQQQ

| Substance | binding (GST–importin β1) | binding [1] | other results |
| --- | --- | --- | --- |
| CHD4-C-Flag aa 304–307 Ala (from UniProt Q14839 1-1912) (enzyme) | no binding (tested: 1.5 µg CHD4 protein) | – | – |
| CHD4-C-Flag Δ aa 2–149 (from UniProt Q14839 1-1912) (enzyme) | no binding (tested: 1.5 µg CHD4 protein) | – | – |
| CHD4-C-Flag Δ aa 217–360 (from UniProt Q14839 1-1912) (enzyme) | no binding (tested: 1.5 µg CHD4 protein) | – | – |
| CHD4-C-Flag, C-terminal Flag-tagged recombinant human CHD4 wild-type (from UniProt Q14839 1-1912) (enzyme) | no binding (tested: 1.5 µg CHD4 protein) | – | binding (GST–importin α5): binds |
| HDAC1 (from UniProt Q13547 1-482) (enzyme) | – | binds | binding [2]: binds |
| His-tagged nucleoplasmin (from UniProt P05221 1-200) | – | – | binding (GST–importin α5): binds |
| importin α5 (from UniProt P52294 1-538) | – | binds | – |
| importin α7 (from UniProt O60684 1-536) | – | binds | – |
| importin β1 (from UniProt Q14974 1-876) | – | no binding | – |
